Test results reported in PubChem BioAssay AID485364 (National Center for Advancing Translational Sciences (NCATS), 2010).
Out of some 360,000 compounds screened, about 11,000 (3.1%) were called active. This list was built around the results that the source calls inconclusive (neither active nor inactive); the mix of calls is not that of the screen. Calls follow the shape of the dose curve; as a rule, active = well fitted inhibition curve with a large enough effect; inconclusive = small, poorly fitted or top-dose-only effect; inactive = no such curve, though single readings can be large or run the other way. No potency is given beside an inconclusive call; the fits are too rough.

Molecular target: Schistosoma mansoni thioredoxin glutathione reductase (TGR) (UniProt Q962Y6)
Assay: qHTS Assay for the Inhibitors of Schistosoma Mansoni Peroxiredoxins; also: nearly all actives have a fitted effect of over 60% in size
Settings: purified TGR, DTNB reduction, TNB absorbance 405 nm; series mostly up to 114 µM
In short: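 Kinetic colorimetric format: TGR-catalysed, NADPH-driven DTNB reduction monitored via TNB absorbance. Enzyme dispensed at 20 nM; compound exposure 15 min at room temperature before reaction start.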
Potency is read from the fitted curve at half-maximal effect; tags tell the direction and shape of the fitted curve.

Row | SMILES | Potency
1 | COc1ccc(C2c3[nH]c4ccccc4c3CCN2Cc2ccoc2)c(F)c1 (centres undefined) | inconclusive [inhibitor, partial curve]
2 | COc1ccc(CCNC(=O)CC2SC(=Nc3cc(C)cc(C)c3)NC2=O)cc1OC (centres undefined) | inconclusive [inhibitor, partial curve]
3 | CC(C)CNC(=O)c1c(N)n(Cc2ccco2)c2nc3ccccc3nc12 | active: 31.6 µM
4 | N#C/C(=C/c1ccc(N2CCCCC2)o1)C(=O)Nc1ccc2ccccc2c1 | inconclusive [inhibitor, partial curve]
5 | CCCCn1nnnc1NCc1ccc(N2CCCC2)cc1 | inconclusive [inhibitor, partial curve]
6 | CCC(C)c1ccccc1NC(=O)C1CCCO1 (centres undefined) | inconclusive [inhibitor, partial curve, poor fit]
7 | O=C(NCCNC(=O)c1ccc(Br)o1)c1ccc(Br)o1 | inconclusive [inhibitor, partial curve]
8 | CCOCCCNC(=S)Nc1ccc2nc(N3CCCC3)cc(C)c2c1 | active: 50.1 µM
9 | CC/C(C)=N/Nc1nc2sc3c(c2c(=O)[nH]1)CC(C)(C)OC3 | inconclusive [inhibitor, partial curve]
10 | COC(=O)C1=C(C)OC(N)=C(C#N)C1c1cccnc1 (centres undefined) | inconclusive [inhibitor, partial curve]
11 | CCOC(=O)c1cc2n(c1N)-c1ccccc1C2=O | active: 31.6 µM
12 | O=C1CC(N(O)c2ccccc2)C(=O)N1c1ccc(Cl)c(Cl)c1 (centres undefined) | inconclusive [inhibitor, partial curve]
13 | O=C(NN1C(=O)c2ccccc2NC1c1ccc([N+](=O)[O-])o1)c1ccccc1 (centres undefined) | inconclusive [inhibitor, partial curve]
14 | C=CCOC(=O)Nc1ccc(Cl)cc1NC(=O)OCC=C | inactive
15 | CCOC(=O)C1CCCN(CC(=O)c2c[nH]c3ccc(C)cc23)C1 (centres undefined) | inconclusive [inhibitor, partial curve]
16 | CC1=C(C(N)=O)C(c2ccc3c(c2)OCO3)n2nc(-c3cccc(C)c3)nc2N1 (centres undefined) | active: 0.251 µM
17 | CCN(CC)S(=O)(=O)c1cccc(-c2nnc(SCCOc3ccc(Cl)cc3)o2)c1 | inconclusive [inhibitor, partial curve, poor fit]
18 | Cc1cc(C)c(S(=O)(=O)N2CCCCC2CCNC(=O)C(=O)NC2CC2)c(C)c1 (centres undefined) | inactive
19 | CC1(C)CC(=O)C2=C(C1)NCN(CCCN1CCOCC1)C2 | inconclusive [inhibitor, partial curve]
20 | Cc1cc(C(=O)CN2CCCC2)c(C)n1-c1ccc(Cl)cc1 | inconclusive [inhibitor, partial curve]
21 | CCN1CCN(C(=O)Nc2ccc(Cc3ccc(NC(=O)N4CCN(CC)CC4)cc3)cc2)CC1 | inactive
22 | Cc1c(C(=O)Nc2ccc(F)cc2F)oc2c1-c1nn(Cc3c(F)cccc3Cl)cc1CC2 | inactive
23 | Cn1c2ccccc2c2cc(C(=O)NNC(=O)CCl)sc21 | active: 39.8 µM

Row | SMILES | Potency
24 | Cc1ccc(/C=C/C(=O)NCC2COc3ccccc3O2)o1 (centres undefined) | inconclusive [inhibitor, full curve]
25 | CN(C(=O)c1cccc(NC(=O)c2ccco2)c1)c1ccccc1 | inactive
26 | COCCn1c(C)cc(O)c(C(c2ccc(OC)cc2)N2CCN(c3ccccc3)CC2)c1=O (centres undefined) | active: 8.91 µM
27 | CC(C)Oc1ccc(/C=N/NC(=O)c2nnn(-c3nonc3N)c2CN(C)c2ccccc2)cc1 | inactive
28 | C=CCNC(=S)Nc1ccc(C(N)=O)cc1 | inconclusive [inhibitor, partial curve]
29 | COc1ccc(OC)c(NC(=O)CCNC(=O)Cn2cnc3ccccc3c2=O)c1 | inconclusive [inhibitor, single point]
30 | Cc1cc(C)c[n+](C(C)C(=O)c2ccc(Cl)cc2)c1 (centres undefined) | inconclusive [inhibitor, single point]
31 | COc1ccc(CC2=CC(=O)c3ccccc3C2=O)cc1 | active: 28.2 µM
32 | COc1cc(OC)c(C2CC(=O)N3CN(C)CSC3=C2C#N)cc1OC (centres undefined) | inconclusive [inhibitor, full curve, poor fit]
33 | Cc1ccc(/C=C/C(=O)O)cc1S(=O)(=O)N1CCc2ccccc21 | inconclusive [inhibitor, partial curve]
34 | COc1cc(/C=C2\C(=O)NC(=O)N(CCc3ccc(F)cc3)C2=O)ccc1O | inconclusive [inhibitor, full curve, poor fit]
35 | O=C(CSc1nc2ccccc2c2c1CCCC2)N1CCOCC1 | inactive
36 | COc1cccc(C2CC(c3c(-c4ccccc4)c4cc(Cl)ccc4[nH]c3=O)=NN2S(C)(=O)=O)c1OC (centres undefined) | inconclusive [inhibitor, full curve, poor fit]
37 | CC(=O)N1CCc2ccc(C(=O)CN3CCN(c4cccc(C)c4C)CC3)cc21 | inconclusive [inhibitor, partial curve]
38 | Cc1ccc(CSCC2Nc3ccc(C(=O)N4CCN(c5cccc(C)c5)C(C)C4)cc3NC2=O)cc1 (centres undefined) | inconclusive [inhibitor, full curve, poor fit]
39 | CC(=O)C1=C(C)Nc2ncnn2C1c1ccccc1Cl (centres undefined) | inactive
40 | COc1ccc(C(=O)O)cc1NC(=S)NC(=O)Cc1ccc(Cl)cc1 | inconclusive [inhibitor, full curve]
41 | Cc1ccc(C(=O)NCC(c2ccco2)S(=O)(=O)c2ccc(Cl)cc2)cc1C (centres undefined) | active: 11.2 µM
42 | COC(=O)c1ccc(C2Nc3cccc4cccc(c34)N2)cc1 | inconclusive [inhibitor, partial curve]
43 | CC1CCCCN1C(=O)CSc1c2c(nc3cc(Cl)ccc13)CCCC2 (centres undefined) | inactive
44 | O=C(COc1ccc(Cl)cc1)Nc1ccc(Cl)cc1C(=O)c1ccccc1 | inactive
45 | Nc1ccc([As](=O)(O)O)cc1 | active: 35.5 µM
46 | Cc1ccc(S(=O)(=O)N/N=C/c2ccc(O)c(O)c2)cc1[N+](=O)[O-] | inconclusive [inhibitor, full curve, poor fit]

Row | SMILES | Potency
47 | COc1cc(C2C3=C(CC(C)(C)CC3=O)N(C)C3=C2C(=O)CC(C)(C)C3)ccc1O | inconclusive [inhibitor, single point]
48 | Cc1cc(C)c(S(=O)(=O)NCC(c2ccco2)S(=O)(=O)c2cccs2)c(C)c1 (centres undefined) | active: 0.282 µM
49 | CN(c1ccccc1)c1ccc(/C=C/[N+](=O)[O-])cc1 | inactive
50 | COc1cc(CN2CCC(C(=O)N3CCN(c4ccccc4F)CC3)CC2)cc(OC)c1O | inconclusive [inhibitor, full curve, poor fit]
51 | C=CCn1c(COc2cccc(C)c2)nnc1SCC(=O)NC(=O)NCc1ccco1 | inconclusive [inhibitor, partial curve]
52 | COc1ccc(S(=O)(=O)Cc2ccc(C(=O)N3CCN(C4CCCCC4)CC3)o2)cc1 | inconclusive [inhibitor, partial curve, poor fit]
53 | CSc1nsc(/C=C/Nc2ccc(C(=O)O)cc2)c1C#N | inconclusive [inhibitor, single point]
54 | COc1ccc(CCN2C(=O)CC(N3CCC(C(N)=O)CC3)C2=O)cc1OC (centres undefined) | active: 3.16 µM
55 | CCOC(=O)C1CCCN(C(=O)c2ccc3nc(-c4ccc(OC)c(OC)c4)c(-c4ccc(OC)c(OC)c4)nc3c2)C1 (centres undefined) | inactive
56 | Cc1ccc(NC(=O)Cc2ccc3c(c2)OCCO3)cc1S(=O)(=O)N1CCCCC1 | inactive
57 | O=[N+]([O-])c1ccc(C2=NN(c3ccccc3)C(c3ccco3)C2)cc1 (centres undefined) | inconclusive [inhibitor, partial curve]
58 | COc1cc(/C=N/NC(=O)c2cccnc2)ccc1OCC(=O)Nc1ccc(C)cc1 | inconclusive [inhibitor, single point]
59 | CC(=O)Nc1ccc(Sc2ncccc2C(=O)Nc2ccc(F)cc2)cn1 | inconclusive [inhibitor, partial curve]
60 | COCCNC(=S)Nc1ccc([N+](=O)[O-])cc1C | inconclusive [inhibitor, partial curve]
61 | C#CCOCCOCCOCCNc1nc(N2CCN(C(=O)[C@H](CCC(=O)O)n3cc(C(N)Cc4ccc(O)cc4)nn3)CC2)nc(N2CCN(C(=O)[C@H](Cc3ccc(O)cc3)n3cc(C(N)CC(C)C)nn3)CC2)n1 (some centres undefined) | active: 14.1 µM
62 | COc1ccc(OC)c(NC(=O)CCNC(=O)c2ccco2)c1 | inactive
63 | O=C1/C(=C\c2cc(Br)cc(Br)c2O)SC(=S)N1Cc1ccccc1 | active: 39.8 µM
64 | CN(C(=O)CC1C(=O)NCCN1CC1CCCCC1)C1CCOCC1 (centres undefined) | inconclusive [inhibitor, partial curve]
65 | CCOc1cc(/C=N/NC(=O)c2ccccn2)ccc1OC(=O)c1ccc(F)cc1 | active: 50.1 µM
66 | S=C(Nc1ccccc1)Nc1ccccc1Br | active: 44.7 µM
67 | CCOc1ccc(S(=O)(=O)N2CCC(C(=O)NC3CCCCC3)CC2)cc1 | inconclusive [inhibitor, partial curve, poor fit]
68 | COc1ccc(Cl)cc1NC(=O)NCCN1CCNC1=O | inconclusive [inhibitor, single point]
69 | Cn1nnnc1Sc1ncnc2scc(-c3ccc([N+](=O)[O-])cc3)c12 | inconclusive [inhibitor, partial curve]
